# Results taken from publication PMC4336329 (PLoS ONE, 2015).
# Out of some 310,000 compounds screened, about 2,200 (0.71%) showed an effect of 50% or more. The effect is printed as a negative number. The list shows a part of the results.
# Target: human ether-à-go-go-related gene (hERG) potassium channel (human, UniProt Q12809)
# Assay: primary screen, population patch clamp on CHO cells stably expressing hERG
# Chain of human ether-à-go-go-related gene (hERG) potassium channel (Q12809 whole entry, looked up): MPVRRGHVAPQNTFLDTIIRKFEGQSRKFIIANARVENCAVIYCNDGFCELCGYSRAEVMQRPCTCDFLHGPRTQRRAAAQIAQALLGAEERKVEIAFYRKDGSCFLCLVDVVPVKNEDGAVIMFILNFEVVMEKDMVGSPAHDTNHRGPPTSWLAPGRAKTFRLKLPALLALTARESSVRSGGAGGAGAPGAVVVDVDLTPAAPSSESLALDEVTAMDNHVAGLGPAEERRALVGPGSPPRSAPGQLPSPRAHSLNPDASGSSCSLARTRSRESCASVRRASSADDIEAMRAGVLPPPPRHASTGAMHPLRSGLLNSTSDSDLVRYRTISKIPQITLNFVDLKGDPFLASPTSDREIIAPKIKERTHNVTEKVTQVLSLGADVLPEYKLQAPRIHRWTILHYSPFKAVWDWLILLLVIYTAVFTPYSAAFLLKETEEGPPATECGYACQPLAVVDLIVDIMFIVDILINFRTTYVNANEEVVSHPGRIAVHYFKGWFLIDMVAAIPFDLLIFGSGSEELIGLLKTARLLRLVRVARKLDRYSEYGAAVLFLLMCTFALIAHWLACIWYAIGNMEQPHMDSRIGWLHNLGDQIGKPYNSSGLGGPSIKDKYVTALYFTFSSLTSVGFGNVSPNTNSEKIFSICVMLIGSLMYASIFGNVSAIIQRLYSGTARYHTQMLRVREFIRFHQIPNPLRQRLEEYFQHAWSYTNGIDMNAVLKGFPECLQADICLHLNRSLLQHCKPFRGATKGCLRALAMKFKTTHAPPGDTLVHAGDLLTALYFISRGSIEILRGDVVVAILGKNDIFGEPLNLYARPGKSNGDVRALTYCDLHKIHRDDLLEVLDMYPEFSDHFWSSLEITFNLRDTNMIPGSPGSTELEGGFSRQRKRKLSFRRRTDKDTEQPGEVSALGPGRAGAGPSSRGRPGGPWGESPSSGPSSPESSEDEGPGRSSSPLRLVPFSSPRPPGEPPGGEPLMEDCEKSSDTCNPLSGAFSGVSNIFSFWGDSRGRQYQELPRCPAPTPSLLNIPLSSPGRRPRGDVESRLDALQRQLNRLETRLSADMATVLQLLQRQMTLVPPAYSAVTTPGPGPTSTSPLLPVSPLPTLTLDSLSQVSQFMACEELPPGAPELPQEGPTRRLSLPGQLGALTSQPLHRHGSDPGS
row,SMILES,"hERG current change (%, negative = inhibition) at 1uM [%]"
1,CCOC(=O)CSc1[nH]c2cc(OC)ccc2c1[N+](=O)[O-],4.58
2,Cc1cc(C2=NNC(=NCCc3ccccc3)SC2)c(C)n1CC1CCCO1 (stereo not drawn),7.84
3,CCCCn1nnc(NC(=O)Cc2ccc(Cl)cc2)n1,-4.74
4,CCCCOC(=S)NC(=O)c1sc2ccccc2c1Cl,0.594
5,COC(=O)N/N=C/c1cccc(OCCSc2ccc(Cl)cc2)c1,14.5
6,CCN(CC(=O)NC1CCS(=O)(=O)C1)C(=O)C(c1ccccc1)c1ccccc1 (stereo not drawn),8.7
7,O=C(Nc1ccc(OCC(=O)N2CCOCC2)cc1)c1ccccc1Cl,11.1
8,O=C1NCN(c2ccccc2)C12CCNCC2,9.65
9,CC(C)(C)c1cc(NCCCn2ccnc2)n2ncc(-c3ccccc3)c2n1,8.87
10,Cl.Oc1cccc(CN2CCCCC2)c1,-0.769
11,CC(C)(C)c1ccc(-c2conc2N)cc1,10.4
12,Cc1nn(Cc2ccccc2)c(Cl)c1C(=O)OCC#N,-0.208
13,COc1cc(/C=N/NC(=O)CN2CC(c3ccccc3)CC2=O)ccc1OC(=O)N(C)C (stereo not drawn),8.89
14,O=C(Cn1nc(-c2ccccc2)ccc1=O)NCCN1CCN(Cc2ccccc2)CC1,4.05
15,CCOc1cc(C(=O)NC(C)Cc2cccs2)cc(OCC)c1OCC (stereo not drawn),9.31
16,CCOC(=O)c1c(NC(=O)CN2C(=O)NC3(CCC(CC)CC3)C2=O)sc(C)c1-c1ccc(C)cc1 (stereo not drawn),8.12
17,CCc1ccc(NC(=O)c2cc(S(=O)(=O)N3CCCC3)c[nH]2)cc1,3.26
18,CCOCCCNC(=O)C1CCC(CNS(=O)(=O)c2ccc(Cl)cc2)CC1 (stereo not drawn),1.19
19,CCN(C(=O)CSc1nc2ccc([N+](=O)[O-])cc2s1)C1CCS(=O)(=O)C1 (stereo not drawn),-14.7
20,O=C(Oc1ccc(N2C(=O)C3C4CCC(C4)C3C2=O)cc1)c1ccco1 (stereo not drawn),15.5
21,COC(=O)C1=C(c2cccc(C#N)c2)C[C@@H]2CC[C@H]1N2C(=O)NCCNC(C)=O,17.2
22,CCCCNC(=O)CS(=O)Cc1nc(-c2cccc(C)c2)oc1C (stereo not drawn),-2.23
23,CC(C)CN(C(=O)COC(=O)CCC(=O)c1ccc(Cl)cc1)c1c(N)n(Cc2ccccc2)c(=O)[nH]c1=O,10.9

row,SMILES,"hERG current change (%, negative = inhibition) at 1uM [%]"
1,CCCCCCCN1CCC(=O)N(CCO)CC1,-21.7
2,O=[N+]([O-])c1ccc(Cl)c(/C=N/N2CCN(c3ccccc3)CC2)c1,14.2
3,O=C(c1cncc(Br)c1)N1CCN(c2ccc(N3CCOCC3)nn2)CC1,9.87
4,CCOC(=O)N1CCN(C(=O)/C(=C\c2cccs2)NC(=O)c2cccs2)CC1,-8.11
5,COc1cccc(NC(=O)[C@H](NC(=O)[C@@H]2Cc3ccccc3CN2)c2ccccc2)c1,-18.9
6,C/C(=N\NC(=O)CN1CCN(Cc2ccccc2)CC1)c1cccs1,-2.13
7,Cc1nc(-c2ccccc2)cc(-c2ccccc2)n1,7.66
8,c1ccc(SCc2nc3ccccc3s2)nc1,10
9,CC1OC23CCCCC2C(C#N)(C(=N)O3)C1(C#N)C#N (stereo not drawn),11.3
10,Cc1ccc(S(=O)(=O)N2CCN(C(=O)C3CC3C)CC2)c(C)c1 (stereo not drawn),-5.48
11,NNC(=O)C1CCCn2c1nc1sc3c(c1c2=O)CCCC3 (stereo not drawn),7
12,CCC(C)c1ccccc1OCCOCCN1CCCC1 (stereo not drawn),-2.61
13,O=C(CN1C(=O)/C(=C/c2ccccc2)SC1=S)NNC(=O)c1ccccc1O,13.4
14,O=C(NCCC1=CCCCC1)C1CCCN(c2nc3ccccc3o2)C1 (stereo not drawn),13.1
15,Cn1c(=O)c2[nH]c(N3CCN(c4ccccc4)CC3)nc2n(C)c1=O,11.7
16,CC(=O)c1cccc(S(=O)(=O)N2CCN(c3nc4cc(C)cc(C)c4cc3C#N)CC2)c1,5.17
17,CCNC(=O)C1CC(=O)N(c2ccc(OCC)cc2)C1 (stereo not drawn),1.62
18,CCc1cccc(CC)c1NC(=O)COC(=O)/C(C#N)=C/c1ccc(OC)cc1,11.2
19,COc1ccc(CCn2c(-c3ccco3)nc3nc4ccccc4nc32)cc1,3.09
20,Cc1sc2ncnc(SCC(=O)N3CCCC3)c2c1C,3.05
21,Cc1cccc(NC(=O)Nc2cccc3ccccc23)c1,5.66
22,CCN(c1ccccc1)S(=O)(=O)c1ccc(Oc2ccc([N+](=O)[O-])cc2)nc1,4.59
23,COCc1c(C(=O)OC)nnn1-c1ccc(C(F)(F)F)cc1[N+](=O)[O-],4.27

row,SMILES,"hERG current change (%, negative = inhibition) at 1uM [%]"
1,COc1ccc(NC(=O)CCCC(=O)c2ccccc2)cc1OC,8.46
2,Cc1ccc(N=CC=C2OC(C)(C)C(C)(C)O2)c(C)c1,13.7
3,C=CCN1C(=O)/C(=C2/Sc3ccc(OC)cc3N2C)SC1=NCc1ccccc1,2.86
4,Cc1ccc(-n2c(O)c(/C=N/c3ncc(Br)cc3Br)c(=O)[nH]c2=O)cc1,1.59
5,O=C(NC1CC1)C1=C[C@@H](c2coc3ccccc3c2=O)C[C@@H](OCc2ccc(CO)cc2)O1,-5.18
6,CCN1CCc2c(OCC(=O)N3CCCc4ccccc43)cccc2C1=O,4.36
7,CSCC[C@@H](C(=O)Nc1ccc2c(c1)OCCO2)N1Cc2ccccc2C1=O,0.177
8,NC(=O)c1cc(-c2ccncc2)nc2ccc(Cl)cc12,13.8
9,CCOC(=O)C1CCCN(Cc2cccc(Oc3ccccc3)c2)C1 (stereo not drawn),7.83
10,C/C(N)=C(/C#N)C(=O)CSc1nnc(Nc2ccccc2C)s1,5.44
11,CC1(/[N+]([O-])=C\c2ccccc2F)CCCCC1=O (stereo not drawn),12.5
12,COc1ccc(CN2CCN(C3CCC3)CC2CCO)c(F)c1 (stereo not drawn),12.2
13,c1ccc2c(-c3nc4ncccc4o3)cccc2c1,9.44
14,C1=CC2CC1CC2CN1CCN(c2ccccc2)CC1 (stereo not drawn),-6.09
15,N#C/C(=C\c1ccc(-c2ccc(S(=O)(=O)N3CCOCC3)cc2)o1)C(=O)NC1CC1,4.22
16,Cc1c(OCc2ccccc2)c(=O)ccn1Cc1ccc(Cl)cc1,16.9
17,CC(C)N1CCc2c(sc(NC(=O)CN3C(=O)c4ccccc4C3=O)c2C(N)=O)C1.Cl,4.44
18,COc1ccc(CN(C)CC(=O)Nc2cccc(S(=O)(=O)N(C)c3ccccc3)c2)c(OC)c1,-25
19,CCOC(=O)c1nc(Nc2cccc(C)c2)c2ccccc2n1,1.44
20,Cc1cccc(S(=O)(=O)NNC(=O)c2cc(-c3ccc(F)cc3)nc3ccccc23)c1,7.19
21,Cc1ccc(C(=O)NC(C)c2ccccc2)cc1Br (stereo not drawn),9.93
22,CCOC(=O)N/N=C1\CCc2ccccc21,11.1
23,O=C(NCCc1ccc(F)cc1)c1ccc(NS(=O)(=O)c2ccc3[nH]c(=O)[nH]c3c2)cc1,17.3

row,SMILES,"hERG current change (%, negative = inhibition) at 1uM [%]"
1,COc1ccc(CN2CCOC2=O)cc1OC,13.4
2,NS(=O)(=O)c1ccc(CNC(=O)c2cc(-c3cccnc3)nc3ccccc23)cc1,14.6
3,CC(=O)NNc1cc(C)nc(NS(=O)(=O)c2ccc(C)cc2)n1,14.4
4,O=C(Cn1cnc2c(oc3ccccc32)c1=O)NCc1ccccc1,4.83
5,O=C(NC(CO)Cc1ccc([N+](=O)[O-])cc1)C(Cl)Cl (stereo not drawn),11.2
6,O=S(=O)(O)c1cccnc1SCc1ccccc1,20.4
7,CCOC(=O)c1cn(CC)c2cc(Cl)c([N+](=O)[O-])cc2c1=O,8.85
8,COc1ccc(C(=O)Nc2cc(C)nn2-c2cccc(F)c2)cc1,9.2
9,COc1ccc2c(c1)CCc1c(C(=O)NCCCn3ccnc3)noc1-2,-12.1
10,Cc1c(/C=N/NC(=O)c2sc3ccccc3c2Cl)cnn1C,10.3
11,O=C(Nc1cccc([N+](=O)[O-])c1)c1ccc(N2CCCC2=O)cc1,-9.09
12,CCC1C=C(c2ccccc2)C=CN=C1N(CC)CC (stereo not drawn),-41.8
13,CCCSc1nc(N2CCOCC2)c2c(c1C#N)CCCC2,8.95
14,O=C(NCc1ccccc1)c1ccc(CN(c2ccccn2)S(=O)(=O)c2ccccc2)cc1,15
15,COc1ccc(N2CCN(C(=S)Nc3ccccc3)CC2)cc1,13.5
16,CCN(CC)C(=O)CSc1nnc(NC(=O)CCc2ccccc2)s1,15.4
17,COC(OC)c1ccnc(-c2ccc(OC(=O)c3ccc(F)cc3)cc2)n1,9.75
18,Cc1ccc(C(=O)CCNc2ccc(Br)cc2)o1,2.93
19,O=C(CCS(=O)(=O)c1ccc2c(c1)NC(=O)CO2)NCc1ccccc1,16.6
20,COc1ccc(C2CC2/C(C)=N/OC(=O)c2cccs2)cc1 (stereo not drawn),7.21
21,Cc1nnsc1C(=O)NNc1ccc(C(C)C)cc1,11.6
